# Assay results taken from PubChem BioAssay AID504333 (National Center for Advancing Translational Sciences (NCATS), 2011).
# Among all 360,000 compounds or so, about 16,000 (4.4%) were called active. Inconclusive means that the source gave no clear call. Such entries were picked first, then a sample of the others. Calls follow the shape of the dose curve; as a rule, active = well fitted inhibition curve with a large enough effect; inconclusive = small, poorly fitted or top-dose-only effect; inactive = no such curve, though single readings can be large or run the other way. Potencies beside an inconclusive call are fits to weak or partial responses and may not hold up.
# Molecular target: Bromodomain adjacent to zinc finger domain protein 2B (Homo sapiens) (UniProt Q9UIF8)
# Experiment: qHTS Assay for Inhibitors of BAZ2B; also: nearly all actives have a fitted effect of over 60% in size
# Conditions: AlphaScreen BAZ2B-H3K14Ac peptide displacement; series mostly up to 114 µM
# In short: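 BAZ2B (50 nM) with biotin-H3(5-23)K14Ac peptide (50 nM) in PBS pH 7.4, 0.01% Tween-20, preformed 30 min, then compound 30 min at room temperature; top concentration 110uM. AlphaScreen streptavidin donor/nickel chelate acceptor beads (10 ug/mL final), 20 min dark, signal read.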
# Potency is read from the fitted curve at half-maximal effect; tags tell the direction and shape of the fitted curve.
# Sequence of UniProt Q9UIF8 (Q9UIF8 whole entry, looked up, the tested form may be a part): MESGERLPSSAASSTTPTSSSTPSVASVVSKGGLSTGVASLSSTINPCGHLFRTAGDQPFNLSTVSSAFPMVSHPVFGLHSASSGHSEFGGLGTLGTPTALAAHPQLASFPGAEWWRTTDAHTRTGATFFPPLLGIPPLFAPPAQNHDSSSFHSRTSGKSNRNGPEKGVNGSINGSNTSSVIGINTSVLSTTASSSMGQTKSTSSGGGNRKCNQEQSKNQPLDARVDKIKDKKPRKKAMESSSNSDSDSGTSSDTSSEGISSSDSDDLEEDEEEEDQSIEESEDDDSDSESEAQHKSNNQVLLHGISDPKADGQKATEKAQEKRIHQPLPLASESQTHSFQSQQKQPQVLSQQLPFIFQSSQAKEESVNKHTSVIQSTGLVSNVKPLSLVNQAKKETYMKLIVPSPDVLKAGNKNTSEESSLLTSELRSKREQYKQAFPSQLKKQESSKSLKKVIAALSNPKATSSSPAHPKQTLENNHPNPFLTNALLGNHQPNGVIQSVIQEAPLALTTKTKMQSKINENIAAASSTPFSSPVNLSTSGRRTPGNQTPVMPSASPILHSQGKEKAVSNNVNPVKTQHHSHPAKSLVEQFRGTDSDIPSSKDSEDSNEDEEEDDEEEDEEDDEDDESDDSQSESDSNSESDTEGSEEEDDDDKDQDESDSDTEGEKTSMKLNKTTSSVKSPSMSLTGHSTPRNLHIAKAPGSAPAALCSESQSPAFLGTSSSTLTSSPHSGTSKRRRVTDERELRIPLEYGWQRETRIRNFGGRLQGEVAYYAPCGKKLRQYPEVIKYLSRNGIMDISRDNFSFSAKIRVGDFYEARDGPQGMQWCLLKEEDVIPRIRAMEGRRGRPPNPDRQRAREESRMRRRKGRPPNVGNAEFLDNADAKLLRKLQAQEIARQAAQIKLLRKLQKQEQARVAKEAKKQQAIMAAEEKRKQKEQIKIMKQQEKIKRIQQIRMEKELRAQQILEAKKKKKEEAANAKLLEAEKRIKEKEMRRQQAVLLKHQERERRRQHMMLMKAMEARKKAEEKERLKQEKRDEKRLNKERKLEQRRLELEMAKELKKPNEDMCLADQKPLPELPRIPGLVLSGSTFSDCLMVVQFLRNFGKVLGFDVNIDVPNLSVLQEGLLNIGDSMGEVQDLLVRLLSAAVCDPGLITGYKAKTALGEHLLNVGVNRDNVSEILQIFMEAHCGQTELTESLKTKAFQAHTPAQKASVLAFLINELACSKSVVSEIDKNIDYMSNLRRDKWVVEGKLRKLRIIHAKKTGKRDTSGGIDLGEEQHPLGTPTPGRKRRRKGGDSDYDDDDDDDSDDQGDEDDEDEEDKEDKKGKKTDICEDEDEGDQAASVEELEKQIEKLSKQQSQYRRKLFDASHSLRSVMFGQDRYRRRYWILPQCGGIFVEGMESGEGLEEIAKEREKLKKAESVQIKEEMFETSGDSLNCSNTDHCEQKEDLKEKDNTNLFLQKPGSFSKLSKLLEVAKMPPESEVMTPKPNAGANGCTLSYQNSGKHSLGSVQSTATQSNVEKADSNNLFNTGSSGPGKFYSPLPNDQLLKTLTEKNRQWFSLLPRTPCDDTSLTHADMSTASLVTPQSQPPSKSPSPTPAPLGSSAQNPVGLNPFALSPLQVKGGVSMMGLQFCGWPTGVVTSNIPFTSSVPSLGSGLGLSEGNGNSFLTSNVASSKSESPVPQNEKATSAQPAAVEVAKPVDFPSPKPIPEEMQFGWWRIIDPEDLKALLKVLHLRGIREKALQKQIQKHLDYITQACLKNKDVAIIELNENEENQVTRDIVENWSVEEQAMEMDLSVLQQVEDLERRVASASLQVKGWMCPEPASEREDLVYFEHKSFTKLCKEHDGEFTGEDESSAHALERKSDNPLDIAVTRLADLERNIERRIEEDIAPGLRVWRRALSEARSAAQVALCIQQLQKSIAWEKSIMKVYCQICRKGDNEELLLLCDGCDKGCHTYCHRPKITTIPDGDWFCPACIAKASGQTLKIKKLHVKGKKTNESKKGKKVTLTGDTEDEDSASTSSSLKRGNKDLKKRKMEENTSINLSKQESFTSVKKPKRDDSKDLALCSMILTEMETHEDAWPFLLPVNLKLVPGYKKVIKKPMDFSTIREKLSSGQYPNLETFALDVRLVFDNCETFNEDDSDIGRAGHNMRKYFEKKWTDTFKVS
row,SMILES,Potency
1,S=C(c1ccc(-c2cc(Cl)ccc2Cl)o1)N1CCOCC1,active: 35.5 µM
2,CC1CCN(S(=O)(=O)c2cc3c4c(c2)CC(=O)N4CCC3)CC1,"inconclusive: 89.1 µM [inhibitor, single point]"
3,O=C(CSc1n[nH]c(-c2ccncc2)n1)Nc1ccccn1,"inconclusive: 89.1 µM [inhibitor, single point]"
4,C/C(=N/NC(=O)CN1CCN(Cc2ccccc2Cl)CC1)c1cccnc1,inactive
5,CC1=NOC(=O)/C1=C\c1ccc(-c2ccccc2Br)o1,active: 25.1 µM
6,COc1ccc(C2(c3ccc(OC(C)=O)cc3OC(C)=O)CC(c3ccccc3)NC(=S)N2)cc1 (configuration not stated),"inconclusive: 50.1 µM [inhibitor, partial curve]"
7,CC(=O)c1ccc(OCC(O)CN(C)Cc2cccs2)cc1 (configuration not stated),active: 50.1 µM
8,Cc1cccc(Nc2nc(N)c(C#N)c(CC#N)c2C#N)c1,inactive
9,Cc1cc(C)n(CC(O)CN2c3ccccc3Sc3ccccc32)n1 (configuration not stated),active: 50.1 µM
10,N=C1/C(=C/c2ccco2)C(=O)N=C2SC(CC(=O)N3CCCC3)=NN12,"inconclusive: 39.8 µM [inhibitor, single point]"
11,O=C(NCCN1CCCC1)c1ccc(Cn2c(=S)[nH]c3ccc(Br)cc3c2=O)cc1,inactive
12,Cc1cnc(C(=O)Nc2ccccc2-n2cccc2)cn1,inactive
13,COc1cc(CO)ccc1OCc1nnnn1-c1ccc(C)cc1,inactive
14,Cn1c(C(=O)OC(C(=O)NC2CCCCC2)c2ccccn2)cc2sccc21 (configuration not stated),"inconclusive: 89.1 µM [inhibitor, single point]"
15,Cn1c(SCC(=O)Nc2ccc(Br)cn2)nnc1C1CC1,"inconclusive: 50.1 µM [inhibitor, partial curve]"
16,COc1ccc(C(=O)NC(=S)Nc2nc(C)c(C(=O)N(C)C)s2)cc1,"inconclusive: 100 µM [inhibitor, single point]"
17,NS(=O)(=O)c1ccc(CNC(=S)NC2CC2)cc1,"inconclusive: 89.1 µM [inhibitor, single point]"
18,Brc1cccc(OCCN2CCOCC2)c1,active: 50.1 µM
19,CC(=O)Nc1cccc(Oc2ncnc3scc(-c4ccc(C)cc4)c23)c1,"inconclusive: 79.4 µM [inhibitor, single point]"
20,COC(=O)c1ccc(S(=O)(=O)NCc2ccccn2)n1C,inactive
21,CCOC(=O)c1cc(S(=O)(=O)N2CCN(c3cc(C)ccc3C)CC2)[nH]n1,active: 50.1 µM
22,O=C(CCNC(=O)c1ccccc1Cl)NCc1ccco1,"inconclusive: 100 µM [inhibitor, single point]"
